Experiment [1] concerns the target T1, CD20 (human, UniProt P11836 1-297).
T1 construct: whole, on cells; also called human CD20; CD20 presented on WIL-2S cells
T1 sequence (looked up): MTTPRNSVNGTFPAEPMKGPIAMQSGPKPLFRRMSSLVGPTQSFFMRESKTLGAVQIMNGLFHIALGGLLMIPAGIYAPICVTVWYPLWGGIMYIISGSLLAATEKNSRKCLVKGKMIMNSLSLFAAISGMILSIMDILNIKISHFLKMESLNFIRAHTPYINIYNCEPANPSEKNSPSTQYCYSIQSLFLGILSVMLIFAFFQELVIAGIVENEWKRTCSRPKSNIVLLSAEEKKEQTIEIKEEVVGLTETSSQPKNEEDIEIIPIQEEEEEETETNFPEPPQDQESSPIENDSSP
Put plainly: binding to CD20-positive WIL2S cells.

Experiment [2] addresses T1, CD20. Description: flow cytometry time course of cell-surface persistence on Ramos cells.
Experiment [3] concerns the target T1, CD20. Description: flow cytometry time course on Ramos cells loaded at 25 µg/ml, washed, kept at 37° C. or on ice. In general terms: Flow cytometry measures light scatter and fluorescence of single cells or particles in a stream.

The results in this text go back to patent publication US20130336977A1 (published 2013).

B1: CD20×CD20 scorpion (S0129 backbone) with H16 scorpion linker (other)
chain: EIVLTQSPATLSLSPGERATLSCRASSSVSYIVWYQQKPGQAPRLLIYAPSNLASGIPARFSGSGSGTDFTLTISSLEPEDFAVYYCQQWSFNPPTFGQGTKVEIKDGGGSGGGGSGGGGSSQVQLVQSGAESKKPGASVKVSCKASGYTFTSYNMHWVRQAPGQGLEWMGAIYPGNGDTSYNQKFKGRVTMTRDTSTSTVYMELSSLRSEDTAVYYCARSYYSNSYWYFDLWGRGTLVTVSSS[in this place human IgG1 Fc with changes]LSVKADFLTPSIGNSQVQLVQSGAESKKPGASVKVSCKASGYTFTSYNMHWVRQAPGQGLEWMGAIYPGNGDTSYNQKFKGRVTMTRDTSTSTVYMELSSLRSEDTAVYYCARSYYSNSYWYFDLWGRGTLVTVSSGGGGSGGGGSGGGGSASEIVLTQSPATLSLSPGERATLSCRASSSVSYIVWYQQKPGQAPRLLIYAPSNLASGIPARFSGSGSGTDFTLTISSLEPEDFAVYYCQQWSFNPPTFGQGTKVEIKD
notes: also called 20×20 H16 variant
B1: the binding result in the experiment with CD20 [1] is listed as “binds”.

B2: CD20×CD20 scorpion (S0129 backbone) with H18 scorpion linker (other)
chain: EIVLTQSPATLSLSPGERATLSCRASSSVSYIVWYQQKPGQAPRLLIYAPSNLASGIPARFSGSGSGTDFTLTISSLEPEDFAVYYCQQWSFNPPTFGQGTKVEIKDGGGSGGGGSGGGGSSQVQLVQSGAESKKPGASVKVSCKASGYTFTSYNMHWVRQAPGQGLEWMGAIYPGNGDTSYNQKFKGRVTMTRDTSTSTVYMELSSLRSEDTAVYYCARSYYSNSYWYFDLWGRGTLVTVSSS[in this place human IgG1 Fc with changes]LSVLANFSQPEIGNSQVQLVQSGAESKKPGASVKVSCKASGYTFTSYNMHWVRQAPGQGLEWMGAIYPGNGDTSYNQKFKGRVTMTRDTSTSTVYMELSSLRSEDTAVYYCARSYYSNSYWYFDLWGRGTLVTVSSGGGGSGGGGSGGGGSASEIVLTQSPATLSLSPGERATLSCRASSSVSYIVWYQQKPGQAPRLLIYAPSNLASGIPARFSGSGSGTDFTLTISSLEPEDFAVYYCQQWSFNPPTFGQGTKVEIKD
notes: also called 20×20 H18 variant
Regarding B2, the binding result in the experiment with CD20 [1] was “binds”.

B3: CD20×CD20 scorpion (S0129 backbone) with H17 scorpion linker (other)
chain: EIVLTQSPATLSLSPGERATLSCRASSSVSYIVWYQQKPGQAPRLLIYAPSNLASGIPARFSGSGSGTDFTLTISSLEPEDFAVYYCQQWSFNPPTFGQGTKVEIKDGGGSGGGGSGGGGSSQVQLVQSGAESKKPGASVKVSCKASGYTFTSYNMHWVRQAPGQGLEWMGAIYPGNGDTSYNQKFKGRVTMTRDTSTSTVYMELSSLRSEDTAVYYCARSYYSNSYWYFDLWGRGTLVTVSSS[in this place human IgG1 Fc with changes]LSVKADFLTPSISCPPCPNSQVQLVQSGAESKKPGASVKVSCKASGYTFTSYNMHWVRQAPGQGLEWMGAIYPGNGDTSYNQKFKGRVTMTRDTSTSTVYMELSSLRSEDTAVYYCARSYYSNSYWYFDLWGRGTLVTVSSGGGGSGGGGSGGGGSASEIVLTQSPATLSLSPGERATLSCRASSSVSYIVWYQQKPGQAPRLLIYAPSNLASGIPARFSGSGSGTDFTLTISSLEPEDFAVYYCQQWSFNPPTFGQGTKVEIKD
notes: also called 20×20 H17 variant
For the molecule B3, the binding result in the experiment with CD20 [1] is on record as “binds”.

B4: S0129 (other)
chain: EIVLTQSPATLSLSPGERATLSCRASSSVSYIVWYQQKPGQAPRLLIYAPSNLASGIPARFSGSGSGTDFTLTISSLEPEDFAVYYCQQWSFNPPTFGQGTKVEIKDGGGSGGGGSGGGGSSQVQLVQSGAESKKPGASVKVSCKASGYTFTSYNMHWVRQAPGQGLEWMGAIYPGNGDTSYNQKFKGRVTMTRDTSTSTVYMELSSLRSEDTAVYYCARSYYSNSYWYFDLWGRGTLVTVSSS[in this place human IgG1 Fc with changes]GCPPCPNSQVQLVQSGAESKKPGASVKVSCKASGYTFTSYNMHWVRQAPGQGLEWMGAIYPGNGDTSYNQKFKGRVTMTRDTSTSTVYMELSSLRSEDTAVYYCARSYYSNSYWYFDLWGRGTLVTVSSGGGGSGGGGSGGGGSASEIVLTQSPATLSLSPGERATLSCRASSSVSYIVWYQQKPGQAPRLLIYAPSNLASGIPARFSGSGSGTDFTLTISSLEPEDFAVYYCQQWSFNPPTFGQGTKVEIKD
modifications: Forms a disulfide-linked homodimer; one chain is given.
notes: Monospecific single-chain scorpion; also called CD20×CD20 scorpion S0129 (2lm20-4x2lm20-4); S0129wt
Take B4: the binding result in the experiment with CD20 [2] is on record as “binds”.

B5: humanized CD20 (2Lm20-4) SMIP (Fc fusion)
chain: EIVLTQSPATLSLSPGERATLSCRASSSVSYIVWYQQKPGQAPRLLIYAPSNLASGIPARFSGSGSGTDFTLTISSLEPEDFAVYYCQQWSFNPPTFGQGTKVEIKDGGGSGGGGSGGGGSSQVQLVQSGAESKKPGASVKVSCKASGYTFTSYNMHWVRQAPGQGLEWMGAIYPGNGDTSYNQKFKGRVTMTRDTSTSTVYMELSSLRSEDTAVYYCARSYYSNSYWYFDLWGRGTLVTVSSS[in this place human IgG1 Fc with changes]
notes: also called hu CD20 (2Lm20-4) SMIP
Regarding B5, in the experiment with CD20 [3], the binding result is reported as “binds”.
